Data on 111 compounds can be found in PubChem BioAssay AID488969 (Vanderbilt High Throughput Screening Facility, 2010).

The structures appear in SMILES notation. Whole data set: some 110,000 compounds, median “z-score” near -0.1, cut for the highest 2% near 2. Some of the results follow. The source made the active and inactive calls.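 How the source made its calls: active means z-score in the third read window above 3 or below -3; inactive means the rest.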

This test addresses Metabotropic glutamate receptor 8 (Rattus norvegicus) (UniProt P70579). As to the kind of experiment: rat mGluR8 modulators via GIRK flux, primary screen, cell-based, thallium flux, HTS (AID 488969). Conditions: HEK293 rat mGluR8, GIRK (G protein-gated inwardly rectifying potassium channel) thallium flux, FluoZin2; at 10 µM; stronger effect = higher value; submaximal glutamate (EC20) added with thallium.
UniProt P70579, sequence (P70579 whole entry, looked up): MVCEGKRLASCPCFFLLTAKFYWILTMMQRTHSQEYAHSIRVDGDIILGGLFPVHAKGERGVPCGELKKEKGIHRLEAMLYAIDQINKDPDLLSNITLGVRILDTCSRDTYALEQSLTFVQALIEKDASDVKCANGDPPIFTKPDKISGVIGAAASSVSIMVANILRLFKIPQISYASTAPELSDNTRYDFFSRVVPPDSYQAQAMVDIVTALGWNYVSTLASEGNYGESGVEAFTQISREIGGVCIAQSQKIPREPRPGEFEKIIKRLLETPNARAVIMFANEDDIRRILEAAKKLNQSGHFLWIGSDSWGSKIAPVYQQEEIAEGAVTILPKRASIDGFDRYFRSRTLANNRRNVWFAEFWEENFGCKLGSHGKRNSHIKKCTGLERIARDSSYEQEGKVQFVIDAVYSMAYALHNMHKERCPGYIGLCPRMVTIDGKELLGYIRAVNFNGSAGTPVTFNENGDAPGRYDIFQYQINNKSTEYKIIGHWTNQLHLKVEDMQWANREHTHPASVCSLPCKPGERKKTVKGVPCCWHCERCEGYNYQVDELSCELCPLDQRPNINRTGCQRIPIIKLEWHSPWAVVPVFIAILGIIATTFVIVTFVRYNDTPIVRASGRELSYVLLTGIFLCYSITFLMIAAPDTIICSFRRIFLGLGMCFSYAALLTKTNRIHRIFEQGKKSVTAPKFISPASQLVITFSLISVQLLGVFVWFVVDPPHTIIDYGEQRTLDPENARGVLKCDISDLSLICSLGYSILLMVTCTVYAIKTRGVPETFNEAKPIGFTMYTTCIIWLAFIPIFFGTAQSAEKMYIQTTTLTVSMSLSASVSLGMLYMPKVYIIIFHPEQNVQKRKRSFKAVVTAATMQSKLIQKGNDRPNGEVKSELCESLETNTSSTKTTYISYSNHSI
The compound `O=C(NC1CCCCCC1)C1c2ccccc2C(=O)N1CCCN1CCOCC1` (stereo unspecified) came in with a z-score of -0.316. In the case of `COc1ccccc1N1CCN(C(=O)c2cc(C3CC3)on2)CC1` it was 0.123; in that of `CCCCOc1ccc(C2OC34CCCCC3C(C#N)(C#N)C2(C#N)C(=N)O4)cc1` (stereo unspecified), 0.317; in that of `CC(C)CC(NC(=O)C(CC(C)C)NC(=O)OC(C)(C)C)C(=O)O` (stereo unspecified), -0.332. `Cc1ccnc(N2C(=O)c3cccc4c([N+](=O)[O-])ccc(c34)C2=O)c1` displayed a z-score of 1.07. The compound `CCOC(=O)N1CCN(C(=O)COc2ccc(Cl)cc2)CC1` showed a z-score of -0.44.

Turning to `O=C(O)c1ccc(S(=O)(=O)N2CCCCCC2)cc1`, the z-score was -0.192.

`O=c1cc(O)c(-c2cccc(Cl)c2)c(Cl)[nH]1` registered a z-score of -0.757. In the case of `CS(=O)(=O)c1ccc(N2CCOCC2)c(S(C)(=O)=O)c1` it was -0.213; in that of `COc1cc(CNn2cnnc2)ccc1OCC(=O)NC1CCCCC1`, 0.0541; in that of `CSC1=NCCN1C(=O)c1cccs1`, 1.93. The value for `COc1cccc(CN2CCN(C(=O)c3ccco3)CC2)c1OC` was 0.242; that for `CCCCOc1ccc(CN(CCO)CCO)cc1[N+](=O)[O-]` was -0.499; that for `Cc1[nH]c2ccccc2c1C(=O)CNc1nccs1` was -0.301.

As to `COc1ccc(S(=O)(=O)N2CCN(c3ccccn3)CC2)cc1OC`, the z-score is 0.269. In the case of `O=C(CC(=O)c1ccccc1O)c1cccc(F)c1` it was active: 3.63. In the case of `CN1CCCC(OC(=O)CCCC(=O)OC2CCCN(C)C2)C1` (stereo unspecified) it was -0.15. In the case of `O=C1N(c2ccc(Cl)c(Cl)c2)CN(Cc2ccccc2)CN1n1cnnc1` it was -0.237; in that of `CC(C)CCn1c(S(=O)(=O)O)nc2ccccc21`, active: 3.16; in that of `S=C(Nc1ccc(OCc2ccccc2)cc1)Nc1cccc(Cl)c1Cl`, 0.844. The compound `COc1cc(CNCCN2CCOCC2)ccc1OCc1ccccc1Cl` came in with a z-score of 0.465. Turning to `Cc1ccc(-c2noc(CCC(=O)NCCN3CCN(Cc4ccccc4)CC3)n2)cc1`, the z-score is -0.696. In the case of `CN(CC(=O)Nc1ccc(F)c(F)c1F)C1CCCCC1` it was 0.326; in that of `Cc1nnc(SCC(=O)N(Cc2ccccc2)C(C)C)n1-c1ccccc1`, -0.101; in that of `CC(C)C(=O)NC(=S)Nc1ccc(S(=O)(=O)N(C)Cc2ccccc2)cc1`, 0.833. Consider `FCCCOc1ccc(-c2nccc(-c3ccc(Br)cc3)n2)cc1`, for which the z-score is -0.0253. The value for `O=C(Nc1ccccc1)c1ccc2c(c1)OCCO2` was -0.878; that for `Nc1c(C(=O)NC2CCCC2)c2nc3ccccc3nc2n1/N=C/c1ccco1` was -0.834; that for `Cc1ccc(C(=O)c2cc([N+](=O)[O-])ccc2N2CCCCC2)c(C)c1` was -1.24. The value for `CCc1ccccc1-n1c(SCC(=O)NC)nnc1-c1cccnc1` was 0.0375; that for `CCOC(=O)C1CCCN(S(=O)(=O)c2cc(OCC(=O)NC3CCCCC3)c(C)cc2Cl)C1` (stereo unspecified) was -0.186; that for `CCc1ccc(CNc2ccc3c(c2)ncn3C)cc1` was 0.65. The value for `N#Cc1ccccc1NC(=O)COC(=O)CCc1ccc(S(=O)(=O)N2CCCCC2)cc1` was -0.355; that for `CCC(C)(C)NC(=O)c1ccc(S(=O)(=O)N(C)c2ccccc2OC)cc1` was 0.503. In turn, `Cc1ccnc(NC(=O)CCC2COc3ccccc3O2)c1` (stereo unspecified) came in with a z-score of -0.046. The value for `CS(=O)(=O)N1CCCC(C(=O)NCCCN2CCc3ccccc3C2)C1` (stereo unspecified) was 0.487; that for `O=C(Nc1ccc(S(=O)(=O)Nc2ccc(Cl)cc2)cc1)C1CCCO1` (stereo unspecified) was -0.353. Consider `CCc1nc(Nc2ccncc2)c2oc3ccccc3c2n1`, for which the z-score is -1.25. As for `O=C1C2C(C(=O)N1/N=C/c1ccc(N3CCCCC3)o1)C1C=CC2C12CC2` (stereo unspecified), the z-score was 1.52. In the case of `O=C(C1CCCN(S(=O)(=O)c2cccc3cccnc23)C1)N1CCc2ccccc21` (stereo unspecified) it was -1.2; in that of `O=S(=O)(c1cccc(NC(=S)N2CCN(c3ccccc3)CC2)c1)C(F)F`, -0.245. The value for `CCOc1ccc2[nH]c(=O)c(CN(CCc3ccccc3)C(=O)N3CCCC3)cc2c1` was -0.15; that for `CN(C)c1ccc(/C=N\S(=O)(=O)c2ccccc2)cc1` was -0.0575; that for `COc1ccc(/C=C/C(=O)NCc2cn(C)nc2C)cc1COc1ccc(Br)cc1` was -0.112. `COCCn1c(SCC(=O)Nc2cc(C)on2)nnc1-c1ccco1` returned a z-score of -0.0564. The value for `O=C1c2ccccc2C(Nc2ccc3c(c2)OCCO3)N1c1ccccn1` (stereo unspecified) was 0.814; that for `CC(=O)C(C(C)=O)C(NC(=O)c1cccnc1)(C(F)(F)F)C(F)(F)F` was 0.0268; that for `N#Cc1nc(-c2ccccc2F)oc1NCCN1CCOCC1` was -0.214. `CCc1ccc(NC2=CC(=O)CC(c3ccco3)C2)cc1` (stereo unspecified) showed a z-score of -0.311.

For the compound `Cc1ccc2nsnc2c1S(=O)(=O)N1CCOCC1`, the z-score was -0.305.

`COc1cccc(OC)c1C(=O)Nc1ccccc1N1CCCC1` came in with a z-score of -0.48. In the case of `Cc1cc(C)cc(NC(=O)Cn2cc3c(n2)CCCCC3)c1` it was active: 5.95. In the case of `NC(=O)c1sc2nc3c(c(-c4cccs4)c2c1N)CCCCC3` it was 0.122; in that of `COc1cc(NC(=O)COc2ccc(-n3cnnn3)cc2)c(OC)cc1Cl`, -0.133. In the case of `Cc1cc(C)c2oc(C(=O)Nc3nnc(C(C)C)s3)cc(=O)c2c1` it was -0.0364; in that of `COc1cccc(C(=O)N(Cc2ccc(N(C)C)cc2)C2CCS(=O)(=O)C2)c1` (stereo unspecified), -0.438; in that of `CCOC(=O)c1ccc(NC(=O)CC2SC(=NC)N(C)C2=O)cc1` (stereo unspecified), 0.254. `c1coc(-c2ncc[nH]2)c1`: the z-score stood at 0.0775.

Compound `COc1ccc([N+](=O)[O-])cc1NC1C2CC3CC(C2)CC1C3` (stereo unspecified) yielded a z-score of -0.573. The value for `Cc1cccc(/C(N)=N/OC(=O)c2ccc3c(c2)OCO3)c1` was 0.579; that for `O=C(c1cccc(C(F)(F)F)c1)N1CCOC12CCN(c1ncc(C(F)(F)F)cc1Cl)CC2` was -0.0788. As to `COc1ccc(CN(CCC(c2ccccc2)c2ccc(OC(C)C)cc2)C(=O)CCl)cc1OC` (stereo unspecified), the z-score was -0.0471. The value for `CCN1/C(=C2\C(=O)N(C)C(=S)N2C)C=Cc2cc(C)ccc21` was -0.149. The value for `CCOC(=O)c1nnn(-c2nc(OC)nc(N(C)C)n2)c1-c1ccccc1` was -1.4; that for `CCN1CCN(S(=O)(=O)Cc2ccccc2)CC1` was -0.322; that for `C/C(=N\NC(=S)Nc1cc(S(=O)(=O)N2CCOCC2)ccc1Cl)c1ccccc1F` was 0.42.

`c1cc2c3c(cccc3c1)NC1(CCCCC1)N2`: the z-score was -0.436. In the case of `Cc1oc2nc(SCC(=O)Nc3ccc(S(N)(=O)=O)cc3)nc(NC(=O)c3ccccc3)c2c1C` it was -0.289.

Regarding `CCC(=O)N1CCN(C(C)=O)C1c1ccccc1` (stereo unspecified), the z-score was 0.0454.

For the compound `Cc1c(Br)c([N+](=O)[O-])nn1C(C)C(=O)NCc1ccco1` (stereo unspecified), the z-score was -0.00744. As for `CCCn1nnc(NC(=O)Cc2ccc(Cl)cc2)n1`, the z-score came to 0.688.

For the compound `Cc1nc(N2CCN(C(=O)c3ccc(Cl)cc3)CC2)c(C#N)c2c1COC(C)(C)C2`, the z-score was -2.62. In the case of `COc1ccc(C(=O)c2c[nH]c(C(=O)NCc3cccs3)c2)cc1` it was 0.205; in that of `COn1c(-c2ccccc2)nc2c1CCc1nonc1-2`, 0.628; in that of `CC(=O)NCCn1c(SCC(=O)c2ccc(Cl)cc2)nc2ccccc2c1=O`, 0.128. In the case of `O=C(NCc1ccccn1)NC12CC3CC(CC(C3)C1)C2` it was 0.8; in that of `CSc1nnc(C)c(=O)n1COC(=O)COc1ccc2ccccc2c1`, -0.401; in that of `CN(C)C(=O)c1cn(N(C)c2ncc(C(F)(F)F)cc2Cl)c(=O)c2ccccc12`, -0.192.

For `CCC(CC)C(=O)Nc1cccc(C(=O)N2CCCCCC2)c1`, the z-score worked out at 0.159. The value for `COc1ccc(CNC(=O)COC(=O)c2n[nH]c3ccccc23)cc1OC` was -0.278; that for `CC1CCN(C(=O)/C(=C/c2ccccc2Cl)c2ccccc2)CC1` was -0.741. In the case of `O=S(=O)(N/N=C\c1cn(-c2ccccc2)nc1-c1ccccc1)c1ccccc1` it was -0.177; in that of `CC(=O)Nc1ccc(OCC(O)Cn2c(C)nc3ccccc32)cc1` (stereo unspecified), -0.0389; in that of `Cc1cc(C)c(NC2=CC(=O)CC(C)(C)C2)c(C#N)c1`, 1.29. The value for `Cc1ccc(S(=O)(=O)Nc2nc3ccccc3nc2N2CCc3ccccc3C2)cc1` was 0.507; that for `Cc1cc(SCC(=O)Nc2ccccc2C)nc(C)n1` was 0.67; that for `O=C(c1ccc2[nH]c3c(c2c1)CCCC3)N1CCN(c2ccc(F)cc2)CC1` was -0.218. Compound `CCCc1cc(C(=O)Nc2cc(C)on2)no1` had a z-score of -0.171. In the case of `Nc1nc(-c2ccc(Cl)cc2Cl)cn1N` it was -0.0192; in that of `Cc1ccccc1C(=O)NNC1=NCCC1`, 0.322. As to `C=CCc1cccc(/C=N/NC(=O)C(C)Nc2ccc(C)cc2)c1O` (stereo unspecified), the z-score came out at 0.332. In the case of `O=C(c1ccc(COc2ccccc2Br)cc1)N1CCCCC1`, the z-score is -0.225.

In turn, `CCC(C)(C)n1nnnc1C(c1cccs1)N1CCN(Cc2ccccc2)CC1` (stereo unspecified) showed a z-score of 0.0615. In the case of `O=C(NCc1ccccn1)c1ccc(Cl)c(S(=O)(=O)Nc2ccccc2C(=O)NCc2ccccn2)c1` it was -0.128; in that of `O=C(NCC1(c2ccccc2)CCCC1)c1ccc(Br)o1`, -0.309; in that of `COc1cccc(/C=N/Nc2nc3ccccc3n3cnnc23)c1O`, -0.172. The value for `Cc1ccc(N=Cc2cc3c(cc2O)OC(N)=C(C#N)C3c2ccccc2)cc1` (stereo unspecified) was active: 6.28; that for `CCC(=O)Nc1ccc(-c2nn3c(C)nnc3s2)cc1C` was 0.0498; that for `COc1ccc(NC(=O)C(C)N2c3cccc4cccc(c34)S2(=O)=O)cc1OC` (stereo unspecified) was -0.0966. The value for `CN1CCN(C(=O)c2cnn3c(C(F)F)cc(C4CC4)nc23)CC1` was -0.139. With `Cc1ccc(OCC(=O)Nc2ccc(N3CCCC3)cc2)cc1C`, the z-score is 0.163. For the compound `Cc1cnc(C(=O)OCC(=O)c2csc(N3CCCCC3)n2)cn1`, the z-score is 1.52.

The compound `Cc1cccc(NS(=O)(=O)c2ccc3c(c2)Cc2cc(S(=O)(=O)Nc4cccc(C)c4C)ccc2-3)c1C` had a z-score of -0.185.

As for `COc1ccc(-c2nc3ccccc3o2)cc1NC(=O)CSc1ccc(Cl)cc1`, the z-score was -0.0379.

For `CC(=O)CSc1nnc(Cc2ccc([N+](=O)[O-])cc2)o1`, the z-score is -0.494. In the case of `Cc1cc2cc3c(cc2nc1SCC(=O)Nc1ccccc1)CCC3` it was -0.0628; in that of `Clc1cccc(CNc2nnnn2-c2ccccc2)c1`, 0.0987.

Regarding `COCCCNCCOCCSc1ccc(Cl)cc1`, the z-score is 0.918. The value for `N#CC1=C(N)Oc2n[nH]c(-c3cccs3)c2C1c1ccco1` (stereo unspecified) was active: -3.57; that for `CCCC(=O)NC(c1cccs1)c1cc([N+](=O)[O-])c2cccnc2c1O` (stereo unspecified) was 2.37; that for `COc1ccc(/C=N/NC(=O)c2nc(-c3ccccc3)cc(-c3ccccc3)n2)cc1OC` was 0.42.
